The source of these data is article PMC4336329 (PLoS ONE, 2015).

SMILES strings stand for the structures. The campaign covered roughly 310,000 compounds. About 2,200 (0.71%) showed an effect of 50% or more. Effects have a minus sign here. Some of the results follow.

The target in this assay is human ether-à-go-go-related gene (hERG) potassium channel (human, UniProt Q12809). Briefly: primary screen, population patch clamp on CHO cells stably expressing hERG.
Sequence of human ether-à-go-go-related gene (hERG) potassium channel (Q12809 whole entry, looked up): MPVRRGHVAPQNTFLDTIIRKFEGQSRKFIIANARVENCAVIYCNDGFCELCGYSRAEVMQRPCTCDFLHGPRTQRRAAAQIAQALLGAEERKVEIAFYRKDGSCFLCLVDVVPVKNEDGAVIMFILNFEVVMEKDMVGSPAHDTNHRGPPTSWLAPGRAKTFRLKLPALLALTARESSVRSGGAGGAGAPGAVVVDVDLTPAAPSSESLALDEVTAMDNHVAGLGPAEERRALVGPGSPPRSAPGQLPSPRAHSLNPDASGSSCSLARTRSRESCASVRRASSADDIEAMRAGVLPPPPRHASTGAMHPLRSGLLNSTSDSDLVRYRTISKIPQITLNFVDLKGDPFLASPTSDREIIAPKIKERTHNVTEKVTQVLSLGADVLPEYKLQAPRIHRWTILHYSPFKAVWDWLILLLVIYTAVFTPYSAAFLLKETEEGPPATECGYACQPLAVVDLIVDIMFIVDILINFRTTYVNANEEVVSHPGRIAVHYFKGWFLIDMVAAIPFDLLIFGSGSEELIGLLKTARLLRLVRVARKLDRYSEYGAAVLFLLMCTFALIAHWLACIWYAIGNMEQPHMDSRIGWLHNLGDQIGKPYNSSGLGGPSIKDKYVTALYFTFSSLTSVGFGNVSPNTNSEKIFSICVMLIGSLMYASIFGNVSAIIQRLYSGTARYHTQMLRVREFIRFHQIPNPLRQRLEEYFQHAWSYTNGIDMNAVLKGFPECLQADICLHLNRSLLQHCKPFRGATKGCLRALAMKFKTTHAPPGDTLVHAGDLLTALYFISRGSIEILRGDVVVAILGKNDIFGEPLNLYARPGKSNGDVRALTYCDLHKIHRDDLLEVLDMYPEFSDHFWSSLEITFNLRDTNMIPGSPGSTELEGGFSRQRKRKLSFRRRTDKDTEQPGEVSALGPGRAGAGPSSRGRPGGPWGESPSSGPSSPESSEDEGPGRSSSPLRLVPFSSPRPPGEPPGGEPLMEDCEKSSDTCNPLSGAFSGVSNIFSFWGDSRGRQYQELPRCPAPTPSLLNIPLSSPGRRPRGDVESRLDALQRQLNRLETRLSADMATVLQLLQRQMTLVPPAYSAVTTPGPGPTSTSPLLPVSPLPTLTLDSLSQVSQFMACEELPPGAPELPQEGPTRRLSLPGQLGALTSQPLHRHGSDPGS
For `Cc1nc2sc(C(c3ccco3)N3CCC(C)CC3)c(O)n2n1` (stereo not drawn), the “hERG current change (%, negative = inhibition) at 1uM” value was 5.41%. Regarding `O=C(Nc1cccc(NC(=O)c2ccc(Br)o2)n1)c1ccc(Br)o1`, the “hERG current change (%, negative = inhibition) at 1uM” value was 2.37%. With `Cc1ccc(Sc2ncnc3onc(C)c23)cc1`, the “hERG current change (%, negative = inhibition) at 1uM” value was found to be 7.16%.

For the compound `N#CCSCC(=O)Nc1ccc(Br)cc1`, the “hERG current change (%, negative = inhibition) at 1uM” value was found to be 11.8%. As for `O=C(c1noc2c1CCCC2)N1CCCCC1`, the figure is 0.265%; as for `Cc1ccc(N(Cc2cc3ccc(C)cc3[nH]c2=O)S(=O)(=O)c2ccccc2)c(C)c1`, 15%; as for `CCOc1cc(N2CCOCC2)c(OCC)cc1NC(=O)COC(=O)c1cc(C)cc(C)c1`, 14.2%. For `O=C(Cn1c(=O)n(-c2ccccc2)c(=O)n1CC(=O)N1CCCCC1)N1CCCCC1` the value was 8.33%. For `COC(=O)[C@H](C)[C@@H]1C[C@@]1(C)[C@@H](NC(=O)OCc1ccccc1)c1ccccc1` the value was 11.7%; for `CCCOc1ccc(CCC(=O)O)cc1`, 5.02%; for `CCC1=C(OC(=O)N(CC)CC)N2C(=O)OC(=NCC3CC3)[C@]2(Cc2ccccc2)[C@H]2C1=CC[C@H]1C(=O)N(c3ccccc3)C(=O)[C@H]12`, 6.82%. Consider `CCOc1ccc(NS(=O)(=O)c2ccc3[nH]c(=O)oc3c2)cc1`, for which the “hERG current change (%, negative = inhibition) at 1uM” value is given as 7.74%. As for `COc1ccc([C@@H](NC(=O)OC(C)(C)C)C(=O)OC(C)(C)C)cc1`, the figure is 8.97%; as for `O=C(Cc1ccccc1F)Nc1ccccc1N1CCCC1`, 6.58%. For `Oc1c(/C=N/Nc2cccc3cccnc23)ccc2ccccc12` the value was 6.88%. `CN1CCN(CCOC2c3ccccc3CSc3ccc(Cl)cc32)CC1.O=C(O)/C=C\C(=O)O` (stereo not drawn): the “hERG current change (%, negative = inhibition) at 1uM” value was -4.39%. As for `Cc1cccc(CN2CCN(Cc3ccco3)CC2)c1.O=C(O)C(=O)O`, the figure is 13.2%; as for `CCC(C)N=C1SCC(C)(/C=N/O)S1` (stereo not drawn), 1.02%; as for `O=C(Cn1[nH]c(=O)c2ccccc2c1=O)Nc1ccc2c(c1)CCC2`, -6.78%. In the case of `C=CCNC(=O)c1ccc(N(Cc2ccccc2)S(C)(=O)=O)cc1`, the “hERG current change (%, negative = inhibition) at 1uM” value was found to be 7.13%.

As for `CCOC(=O)C1=C(C)N(CCCCCC(=O)O)C(=O)NC1c1ccc([N+](=O)[O-])cc1` (stereo not drawn), the “hERG current change (%, negative = inhibition) at 1uM” value is reported as 6.61%. For `CC(C)C(=O)N(c1ccc(F)cc1)C1C=CS(=O)(=O)C1` (stereo not drawn) the value was 5.57%. For `COCCCNC(=O)CCc1ccc(S(=O)(=O)Nc2ccc(C)cc2)cc1` the value was 4.6%. As for `CN1C(=O)N(C)C2C1N(CN1CCCCC1)C(=O)N2CN1CCCCC1` (stereo not drawn), the figure is 15.9%.
